Measured values taken from patent publication US20220363757A1.

How the values were obtained:
[1] = biological target: cynomolgus LAG-3 on transiently transfected CHO-S cells (cynomolgus); experiment: flow cytometry on transfected CHO-S cells
[2] = biological target: cynomolgus LAG-3 ECD human IgG1 Fc fusion (cynomolgus; human), P18627; experiment: SPR, Fab over captured LAG-3 ECD-Fc
cynomolgus LAG-3 ECD human IgG1 Fc fusion (cynomolgus; human), P18627, sequence (P18627 other isoform, or with tags, fused parts or gaps, form in doubt): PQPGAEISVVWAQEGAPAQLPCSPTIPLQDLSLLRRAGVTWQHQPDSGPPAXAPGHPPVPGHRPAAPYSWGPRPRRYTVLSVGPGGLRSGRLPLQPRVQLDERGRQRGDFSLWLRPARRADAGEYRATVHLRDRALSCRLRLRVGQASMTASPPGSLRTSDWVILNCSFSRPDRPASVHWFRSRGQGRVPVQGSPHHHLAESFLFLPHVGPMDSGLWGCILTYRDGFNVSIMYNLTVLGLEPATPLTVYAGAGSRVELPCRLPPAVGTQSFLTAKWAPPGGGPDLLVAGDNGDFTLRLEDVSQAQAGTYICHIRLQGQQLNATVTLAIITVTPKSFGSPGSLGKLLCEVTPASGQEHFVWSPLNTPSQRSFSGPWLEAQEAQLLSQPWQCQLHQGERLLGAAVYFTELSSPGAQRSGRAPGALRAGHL

EC50 [1] [nM]	Kd [2] [nM]	koff [2] [s⁻¹]	kon [2] [M⁻¹ s⁻¹]	Binder
0.06				antibody 15572 (antibody, human IgG1, kappa) heavy: QLQLQESGPGLVKPSETLSLTCTVSGDSISSSSYYWGWIRQPPGKGLEWIGSIFYSGNTYYNPSLKSRVTISVDTSKNQFSLKLSSVTAADTAVYYCAREDDFLTDYYGAFDIWGQGTMVTVSSASTKGPSVFPLAPSSKSTSGGTAALGCLVKDYFPEPVTVSWNSGALTSGVHTFPAVLQSSGLYSLSSVVTVPSSSLGTQTYICNVNHKPSNTKVDKRV[human IgG1 Fc with changes not shown] light: [about 100 residues not shown][about 120 residues not shown]
	100	0.004	40000	Fab fragment of antibody 15572 (Fab, not shown: a dimerising Fc or GST) heavy: QLQLQESGPGLVKPSETLSLTCTVSGDSISSSSYYWGWIRQPPGKGLEWIGSIFYSGNTYYNPSLKSRVTISVDTSKNQFSLKLSSVTAADTAVYYCAREDDFLTDYYGAFDIWGQGTMVTVSS light: [about 100 residues not shown][about 120 residues not shown]
